In article PMC4336329 (PLoS ONE, 2015):
In all, about 310,000 compounds went through this assay and about 2,200 (0.71%) showed an effect of 50% or more. The effect is printed as a negative number. This is one part of the list.

target: human ether-à-go-go-related gene (hERG) potassium channel (human, UniProt Q12809); test: primary screen, population patch clamp on CHO cells stably expressing hERG
Sequence (Q12809 whole entry, looked up): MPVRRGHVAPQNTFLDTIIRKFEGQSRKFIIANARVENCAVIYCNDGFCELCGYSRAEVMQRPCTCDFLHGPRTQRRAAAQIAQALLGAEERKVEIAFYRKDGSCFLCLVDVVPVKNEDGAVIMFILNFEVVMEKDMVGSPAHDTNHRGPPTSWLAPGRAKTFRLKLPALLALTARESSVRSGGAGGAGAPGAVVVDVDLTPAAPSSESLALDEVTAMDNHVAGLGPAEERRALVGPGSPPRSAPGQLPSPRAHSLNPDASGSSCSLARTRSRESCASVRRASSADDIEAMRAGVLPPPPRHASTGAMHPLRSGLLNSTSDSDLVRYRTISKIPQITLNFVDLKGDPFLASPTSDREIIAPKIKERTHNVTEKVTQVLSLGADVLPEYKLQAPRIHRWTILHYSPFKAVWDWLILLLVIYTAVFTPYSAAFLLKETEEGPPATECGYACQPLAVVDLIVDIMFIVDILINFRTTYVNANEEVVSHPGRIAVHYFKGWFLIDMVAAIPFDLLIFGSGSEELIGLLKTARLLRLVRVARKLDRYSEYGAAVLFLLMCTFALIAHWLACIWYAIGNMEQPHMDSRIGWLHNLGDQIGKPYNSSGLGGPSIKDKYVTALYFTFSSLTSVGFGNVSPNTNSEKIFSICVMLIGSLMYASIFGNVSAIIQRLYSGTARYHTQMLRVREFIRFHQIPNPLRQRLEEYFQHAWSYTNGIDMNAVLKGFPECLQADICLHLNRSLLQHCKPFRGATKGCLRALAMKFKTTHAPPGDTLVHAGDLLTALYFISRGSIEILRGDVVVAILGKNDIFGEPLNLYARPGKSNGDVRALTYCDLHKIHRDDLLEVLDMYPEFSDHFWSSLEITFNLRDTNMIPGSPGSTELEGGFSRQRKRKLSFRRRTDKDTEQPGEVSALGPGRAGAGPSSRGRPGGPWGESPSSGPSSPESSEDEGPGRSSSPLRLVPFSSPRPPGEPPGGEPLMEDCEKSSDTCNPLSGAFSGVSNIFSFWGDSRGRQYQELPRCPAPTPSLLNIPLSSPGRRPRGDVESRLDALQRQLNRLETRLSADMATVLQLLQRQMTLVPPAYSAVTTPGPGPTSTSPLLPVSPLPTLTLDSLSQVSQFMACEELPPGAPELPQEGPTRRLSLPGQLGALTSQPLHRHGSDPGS

Going from `O=C(COC(=O)/C=C/c1ccccc1Cl)NC(=O)NCc1ccccc1` to `COc1ccc(/C=C/C(=O)NCC(=O)N/N=C(\C)Cc2ccccc2)cc1`, the “hERG current change (%, negative = inhibition) at 1uM” value falls from 13.4% to 13%.

Going from `CCn1c(CNc2ccc(F)cc2)nnc1SCC(=O)OC1CCCCC1` to `Cc1cc(C)c(C(=O)N2CCCC(Nc3ccc(F)cc3)C2)o1` (stereo not shown), the “hERG current change (%, negative = inhibition) at 1uM” value rises from -20.2% to 8.9%.

Going from `CC(C)CN(C(=O)CCNC(=O)c1ccc(Cl)cc1)c1c(N)n(CC(C)C)c(=O)[nH]c1=O` to `CN(C)C(CNC(=O)c1ccc(NS(=O)(=O)c2ccc(F)c(F)c2)cc1)c1ccccc1` (stereo not shown), the “hERG current change (%, negative = inhibition) at 1uM” value rises from 7.65% to 8.93%.

First: O=c1c2ccccc2nc(CN2CCOCC2)n1-c1ccccc1F
Second: COc1ccc(C(=O)CN2CCOCC2)cc1F.Cl
The “hERG current change (%, negative = inhibition) at 1uM” value of the first is lower: 11.8% for the first, 14.8% for the second.

Compared with `O=C(CC(c1ccccc1)c1cc(Br)ccc1O)N1CCCCC1` (stereo not shown), `O=C(COc1ccccc1-c1ccccc1)NNC(=O)NC1CCCCC1` is lower in “hERG current change (%, negative = inhibition) at 1uM” value: 11.7% for the first, 2.67% for the second.

Compared with `CCCOc1ccc(N2C(=O)CC(N3CCN(c4nc5ccccc5s4)CC3)C2=O)cc1` (stereo not shown), `Cc1ccc(Cl)cc1N1CCN(C(=O)CCCn2c(=O)c3cccn3c3cccnc32)CC1` is lower in “hERG current change (%, negative = inhibition) at 1uM” value: 9.08% for the first, 2.42% for the second.

Compared with `CCC(=O)Nc1nc2ccc(S(C)(=O)=O)cc2s1`, `CC(C)CCNC(=O)c1cc(-c2ccncc2)nc2ccc(S(=O)(=O)N3CCOCC3)cc12` is higher in “hERG current change (%, negative = inhibition) at 1uM” value: 5.06% for the first, 9.43% for the second.

First: CCn1c(SCC(=O)Nc2cc(S(=O)(=O)N3CCOCC3)ccc2OC)nnc1-c1ccncc1
Second: COc1ccc(Cl)cc1NC(=O)CSc1nnc(Cn2c(=O)sc3ccccc32)n1C
The “hERG current change (%, negative = inhibition) at 1uM” value of the first is higher: 13.7% for the first, -18.7% for the second.

Going from `N/C(CC(=O)Nc1cc(C(F)(F)F)ccc1Cl)=N\O` to `COC(=O)Cn1c(C(F)(F)F)nc2ccccc21`, the “hERG current change (%, negative = inhibition) at 1uM” value rises from 3.11% to 17%.

Compared with `CCc1c(C)c2ccc(OC(C)C(=O)NC(Cc3c[nH]c4ccc(O)cc34)C(=O)O)c(C)c2oc1=O` (stereo not shown), `COc1ccc(C)cc1NC(=O)NNC(=O)C(C)Oc1ccc(F)cc1Cl` (stereo not shown) is lower in “hERG current change (%, negative = inhibition) at 1uM” value: 9.05% for the first, -3.61% for the second.

Compared with `CC1CCCCN1C(=O)COC(=O)C1CCN(S(=O)(=O)c2c(Cl)cccc2Cl)CC1` (stereo not shown), `CC12CCC(=O)N1C(C(=O)Nc1cc(S(=O)(=O)N3CCCCCC3)ccc1OCC(F)(F)F)CS2` (stereo not shown) is higher in “hERG current change (%, negative = inhibition) at 1uM” value: -21% for the first, -6.57% for the second.

Compared with `CCCCC(=O)N1C/C=C\[C@H](c2ccc(OC)cc2)N(Cc2ccc(F)cc2)C(=O)[C@@H]1C`, `O=C(O)c1ccc(COc2ccccc2/C=C2\NC(=O)N(Cc3ccccc3)C2=O)cc1` is higher in “hERG current change (%, negative = inhibition) at 1uM” value: 7.61% for the first, 8.41% for the second.

First: Cc1ccc2[nH]c(=O)c(CN(CC3CCCO3)C(=S)Nc3ccccc3)cc2c1 (stereo not shown)
Second: O=C(CSc1nnc(-c2ccco2)n1-c1ccccc1)NCC1CCCO1 (stereo not shown)
The “hERG current change (%, negative = inhibition) at 1uM” value of the first is higher: 9.42% for the first, 8.96% for the second.

First: CCc1c(C)sc(NC(=O)/C=C/C(=O)O)c1C(N)=O
Second: CCOC(=O)C1=C(O)/C(=C\c2cccc(OC)c2)N=C1C
The “hERG current change (%, negative = inhibition) at 1uM” value of the first is higher: 16.2% for the first, 9.88% for the second.

First: Cc1c(C)c2c(OCC(=O)N3CCC(C(=O)O)CC3)cc3c(c2oc1=O)CCC(C)(C)O3
Second: CC(=O)N1CCN(C(=O)CSc2cc(C)c(Br)cc2C)CC1
The “hERG current change (%, negative = inhibition) at 1uM” value of the first is lower: -0.492% for the first, 13.1% for the second.

Going from `O=C(NNC(=S)NCc1ccc(Cl)cc1)c1cccnc1` to `O=C(c1ccc(Br)o1)N1N=C(c2ccc(Cl)cc2)CC1c1ccco1` (stereo not shown), the “hERG current change (%, negative = inhibition) at 1uM” value rises from 8.09% to 10%.

Going from `C=CCOc1cccc(C2c3c(oc4ccccc4c3=O)C(=O)N2c2ccccn2)c1` (stereo not shown) to `CCCCn1c(SCC(=O)Nc2cc(NC(=O)c3ccco3)ccc2C)nc2ccccc2c1=O`, the “hERG current change (%, negative = inhibition) at 1uM” value falls from 4.17% to -8.07%.

Going from `O=C(CNS(=O)(=O)c1cccc2nsnc12)NCCc1ccccc1` to `O=C(CCNC(=O)C1CCN(S(=O)(=O)c2ccc(F)cc2)CC1)Nc1ccccc1`, the “hERG current change (%, negative = inhibition) at 1uM” value falls from 17.3% to 2.32%.

Compared with `Cc1cccc(OCC(=O)NCC(C)(C)N2CCOCC2)c1`, `COc1cc(CNCCN2CCOCC2)ccc1OCc1ccc(Cl)cc1.Cl` is lower in “hERG current change (%, negative = inhibition) at 1uM” value: 7.14% for the first, -16.2% for the second.

Going from `COc1cccc(NC(=O)CN(C)S(=O)(=O)c2ccc3c(c2)n(C)c(=O)c(=O)n3C)c1` to `COc1ccc(C(=O)OCC(=O)Nc2c(C)n(C)n(-c3ccccc3)c2=O)cc1OC`, the “hERG current change (%, negative = inhibition) at 1uM” value rises from 6.85% to 15.4%.

First: CCN(Cc1ccncc1)Cc1ccc(OC)c(OC)c1.O=C(O)C(=O)O
Second: COc1ccc(C(=O)Nc2ccc3ccccc3c2)c(OC)c1
The “hERG current change (%, negative = inhibition) at 1uM” value of the first is lower: 12.9% for the first, 16.4% for the second.

Compared with `Cc1cc2nc(C)n(CCCNC(=O)Nc3ccc(C#N)cc3)c2cc1C`, `Cc1nc2ccccc2n1C(=O)N(C)C` is higher in “hERG current change (%, negative = inhibition) at 1uM” value: -18.9% for the first, 22.7% for the second.

Going from `O=C(COc1ccc(S(=O)(=O)N2CCCC2)cc1Cl)NCc1ccc2c(c1)OCO2` to `N#Cc1ccccc1OCC(=O)N1CCN(S(=O)(=O)c2ccc(Cl)cc2)CC1`, the “hERG current change (%, negative = inhibition) at 1uM” value rises from -2.61% to -1.4%.

First: C/C(=N\Nc1cc(-c2ccccc2)nc(-c2ccccc2)n1)c1ccc(O)c(C)c1
Second: CCc1ccccc1NC(=O)c1ccc(-n2c(C)ccc2C)cc1
The “hERG current change (%, negative = inhibition) at 1uM” value of the first is higher: 4.39% for the first, -2.49% for the second.

First: C=CCn1cn[nH]c1=S
Second: CCN(CC)C(=O)CSc1nc(-c2ccc(C)cc2)nc2c1COC(C)(C)C2
The “hERG current change (%, negative = inhibition) at 1uM” value of the first is higher: 4.74% for the first, 4.01% for the second.

First: O=C(OCC(=O)C12CC3CC(CC(C3)C1)C2)c1cccnc1Cl
Second: O=C(OCC(=O)N1CCc2ccccc21)C1=COCCO1
The “hERG current change (%, negative = inhibition) at 1uM” value of the first is higher: 16.6% for the first, 8.87% for the second.

Going from `Cc1nc(N)c(Cc2ccc(Cl)cc2Cl)c(N)n1` to `Cn1c(-c2ccc(Cl)cc2)cnc1N`, the “hERG current change (%, negative = inhibition) at 1uM” value rises from 13.3% to 17%.

`Cc1ccc2nc(CSc3nnc(Nc4ccccc4C)s3)cc(=O)n2c1` was tested, and the “hERG current change (%, negative = inhibition) at 1uM” value was 9.23%.
